“And” between values parts separate entries of the source, which are not always exact repeats. Equal entries are not always repeated. Hit rate of the full screen: of about 16,000 compounds, about 40 (0.2%) were called active. Another 1% or so got no clear call; they are omitted. Calls follow the shape of the dose curve; as a rule, active = well fitted activation curve with a large enough effect; inconclusive = small, poorly fitted or top-dose-only effect, or another doubt; inactive = no such curve, though single readings can be large or run the other way. This is one part of the list. Residues, ends and D or L forms follow the SMILES beside them.
biological target: Rap guanine nucleotide exchange factor 4 (Homo sapiens) (UniProt Q8WZA2); test: Validation qHTS for agonist of cAMP-regulated guanine nucleotide exchange factor 4 (EPAC2); conditions: EPAC2 Rap1B BODIPY-GDP exchange, fluorescence; activation: stronger effect = higher value;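 also: exchange makes BODIPY-GDP fluorescence drop when released from Rap1B; series mostly up to about 150 µM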
Chain of UniProt Q8WZA2 (Q8WZA2 whole entry, looked up): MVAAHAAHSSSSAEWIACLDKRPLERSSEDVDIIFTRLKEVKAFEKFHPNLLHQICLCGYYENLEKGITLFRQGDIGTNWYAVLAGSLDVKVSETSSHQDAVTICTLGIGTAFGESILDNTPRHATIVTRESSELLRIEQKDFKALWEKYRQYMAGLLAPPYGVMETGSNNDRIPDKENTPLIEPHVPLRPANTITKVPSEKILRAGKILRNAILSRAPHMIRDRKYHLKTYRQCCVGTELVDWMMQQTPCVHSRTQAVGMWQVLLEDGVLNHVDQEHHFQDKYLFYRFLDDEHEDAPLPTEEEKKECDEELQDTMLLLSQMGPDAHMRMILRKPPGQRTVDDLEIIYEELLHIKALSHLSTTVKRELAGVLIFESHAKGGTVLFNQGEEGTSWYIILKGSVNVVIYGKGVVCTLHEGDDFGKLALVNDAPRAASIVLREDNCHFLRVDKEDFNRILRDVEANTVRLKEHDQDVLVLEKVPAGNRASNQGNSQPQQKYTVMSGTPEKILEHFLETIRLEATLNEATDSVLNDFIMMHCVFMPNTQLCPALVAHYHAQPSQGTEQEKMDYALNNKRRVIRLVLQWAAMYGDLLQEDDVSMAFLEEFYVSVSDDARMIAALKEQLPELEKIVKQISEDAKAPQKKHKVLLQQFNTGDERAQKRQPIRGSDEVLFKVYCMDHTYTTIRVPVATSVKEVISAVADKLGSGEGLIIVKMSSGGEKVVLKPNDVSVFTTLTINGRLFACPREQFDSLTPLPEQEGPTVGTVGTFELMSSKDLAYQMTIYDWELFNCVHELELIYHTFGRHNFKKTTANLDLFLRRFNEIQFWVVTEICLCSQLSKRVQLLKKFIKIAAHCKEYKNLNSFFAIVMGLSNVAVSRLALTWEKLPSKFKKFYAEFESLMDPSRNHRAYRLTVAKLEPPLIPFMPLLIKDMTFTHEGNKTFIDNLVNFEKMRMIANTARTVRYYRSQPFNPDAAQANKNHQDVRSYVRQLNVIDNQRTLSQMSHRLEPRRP
Summary of the method: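 Fluorescent exchange assay: 100 nM EPAC2 with 250 nM RAP1B-BODIPY-GDP and 50 uM GDP; compound added, 5 min at room temperature, then read (ex 480/em 540 nm) every 5 min for 30 min. Normalized to 6.5 mM cAMP agonist control.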
% is scaled to controls: 0 for no effect and ±100 for the full control effect.

activation, inactive:
O=c1[nH]cc(F)c(=O)[nH]1 3.36% and 8.2% and -16.6%, CCOc1cc(NC(C)=O)ccc1C(=O)OC -28.6%, COc1ccc(CNc2nc(-c3cccnc3)nc3ccccc23)c(OC)c1 13.6%, Cc1c(C(=O)NCC2(N3CCOCC3)CCCCCC2)cnn1-c1nccc(-c2ccccc2F)n1 -12.2%, C[C@]12C=CC(=O)C=C1CC[C@@H]1[C@@H]2[C@@H](O)C[C@@]2(C)[C@H]1CC[C@]2(O)C(=O)CO -9.45%, COc1cccc(CN2C(=O)NC(C)(C3CCN(Cc4ccc(C)o4)CC3)C2=O)c1OC (stereo not given) -11.1%, Cc1c(C(=O)NC2CCCCCC2)sc2ncnc(NCC3CCCO3)c12 (stereo not given) -17.3%, COc1ccc(CN2C[C@H](C)[C@@H](CC(=O)NCc3ccccc3)C2=O)cc1 -27.6%, CC1(C)C2CC[C@@]1(C)C(=O)C2 -8.45%, C=C1C[C@]23CC[C@H]4C(CO)(CO)C[C@@H](O)C[C@@]4(C)[C@@H]2CC[C@H]1C3 -10.7%, Nc1ccc(O)c(C(=O)O)c1 9.78%, COc1ccc(Oc2ncc3nc(-c4ccc(F)cc4)c(=O)n(C)c3n2)cc1 -21.3%, NCCCCC(NC(CCc1ccccc1)C(=O)O)C(=O)N1CCCC1C(=O)O (stereo not given) -1.84%, CCC(=O)O[C@H](CC(=O)O)C[N+](C)(C)C -20.8%, CCOC(=O)C[C@H]1c2ccc(C(F)(F)F)cc2S(=O)(=O)N1c1cccc(OC)c1 -41.3%, Cc1cc(OC(=O)c2c(C)cc(O)cc2O)cc(O)c1C(=O)O -15.8% and -10.5%, O=C(c1ccncc1)N1CCC2(CC1)CN(c1cccc(-c3ccccc3)c1)C2 8.96%, CCN(CC)CCOC(=O)C1(c2ccc([N+](=O)[O-])cc2)CCCC1 -21.4% and 2.58%, Cc1nc2cc(NC(=O)[C@@H]3C[C@@H](Sc4ccccn4)CN3Cc3ccccc3C)ccc2s1 -7.02%, CO[C@@]1(NC(=O)C2SC(=C(C(N)=O)C(=O)O)S2)C(=O)N2C(C(=O)O)=C(CSc3nnnn3C)CS[C@@H]21 (stereo not given in full) -26.6%, CN(C)c1ncc2nc(-c3cc(F)cc(F)c3)c(=O)n(Cc3ccc(F)cc3)c2n1 -10.7%, COc1ncccc1C(=O)N1CCOc2ccc(C(O)C(c3ccccc3)c3ccccc3)cc2C1 (stereo not given) -6.68%, NC(=O)C1=CN(C2OC(COP(=O)(O)OP(=O)(O)OC[C@H]3O[C@@H](n4cnc5c(N)ncnc54)[C@H](OP(=O)(O)O)[C@@H]3O)C(O)C2O)C=CC1 (stereo not given in full) -18.5%, Cc1c(C)c2c(c(C)c1OC(=O)c1cccnc1)CC[C@@](C)(CCC[C@H](C)CCC[C@H](C)CCCC(C)C)O2 4.41%, CO[C@]1(C2=NCCN2)COc2ccccc2O1 -24.2%, CC(=O)N[C@@H](CC(=O)O)C(=O)N[C@@H](CCC(=O)O)C(=O)O (Ac-Asp-Glu-OH) -16.2%, Cc1cc(C(C)(C)CC(C)(C)C)ccc1OCCOCC[N+](C)(C)Cc1ccccc1 -20.8%, CCC(C)[C@H]1COCCS(=O)(=O)N1Cc1ccc(C)cc1 (stereo not given in full) -30.2%, Cc1cc(NC(=O)C2=C(O)c3ccccc3S(=O)(=O)N2C)no1 -8.9%, CC(C)(CO)NC(=O)c1cnn(-c2nccc(-c3ccc4c(c3)OCO4)n2)c1C1CC1 -10.7%, CC(CCC(=O)O)C1CCC2C3CC[C@H]4CC(O)CC[C@@]4(C)C3CC(O)[C@]12C (stereo not given in full) -3.15%, CN(C)c1ncc2nc(-c3ccc(Cl)cc3)c(=O)n(C3CC3)c2n1 0.968%, Cn1cccc1C(=O)N1CCC2(CC1)CN(c1ccccn1)C2 -9.92%, CN(C)c1ccc(-c2nc(-n3ccnc3)c3ccccc3n2)cc1 -31.6%, CCCCCCCCCCCCCCCCCCOC[C@H](COP(=O)([O-])OCC[N+](C)(C)C)OC -10.1% and -33.1%, CC(C)[C@@H]1[C@H]2CC[C@H](C2)[C@H]1N -21.3%, O=c1[nH]c(=O)n([C@@H]2O[C@H](CO)[C@@H](O)[C@H]2O)cc1F -5.6%, COc1ccccc1CN1CC[C@@]2(CCCN(S(C)(=O)=O)C2)C1 -13.6%, COc1ccccc1CN1CC[C@@]2(CCCN(C(=O)c3ccncc3)C2)C1 -5.79%, COC(=O)N1CCC[C@@]2(CCN(C(=O)NC(C)C)C2)C1 -10.8%, CC1(C)C(C=C(Cl)Cl)C1C(=O)OCc1cccc(Oc2ccccc2)c1 (stereo not given) -13.7%, OC(c1ccc2c(c1)CN(Cc1cccn1-c1cccnc1)CCO2)C1CCCCC1 (stereo not given) -24.3%, COc1cc2c(cc1O)CC[C@@H]1[C@@H]2CC[C@]2(C)[C@@H](O)CC[C@@H]12 -40.8%, O=C(c1csnn1)N1CCC2(CC1)CN(c1ncccn1)C2 7.71%, CNC(=O)[C@H]1O[C@@H](n2cnc3c(NCc4ccc(N)cc4)ncnc32)[C@H](O)[C@@H]1O -9.89% and -28.8%, O=c1[nH]c(=O)c2nc(Br)n(C3OC(CO)C(O)C3O)c2[nH]1 (stereo not given) -3.94%, COc1ccc(NC(=O)N2CCCC3(CCN(C(=O)c4csnn4)CC3)C2)cc1 -27.3%, O=c1cnc2cnc(N3CCNCC3)nc2n1Cc1ccc(F)cc1 -16.9%, COc1ccccc1-c1ccnc(-n2ncc(C(=O)N3CCN(C(C)C)CC3)c2-c2ccco2)n1 -1.32%, O=C(O)[C@H](O)[C@@H](O)[C@H](O)[C@H](O)CO -31.8% and 10.9%, c1ccc(-c2csc(-c3nc4ccccc4[nH]3)n2)cc1 13.4%, CN(CCc1ccc(Cl)c(Cl)c1)CC(O)COc1ccc(NS(C)(=O)=O)cc1 (stereo not given) 8.79%, CSc1ccc(-c2ccc3c(c2)CC(CNC(=O)Cn2nc(C)nc2C)O3)cc1 (stereo not given) -21.8%, COc1cccc(-c2nc(NCc3ccccc3)c3ccccc3n2)c1 -8.68%, C[C@@]12CCC3c4ccc(OS(=O)(=O)O)cc4CCC3C1CCC2O (stereo not given in full) -2.96%, O=C1CCN(CCc2ccccc2)CCN1CCSc1ccccc1 -20.9%, COc1ccc(-c2coc3ccc(OC4OC(COC(C)=O)C(OC(C)=O)C(OC(C)=O)C4OC(C)=O)cc3c2=O)cc1 (stereo not given) -5.23%, COc1ccccc1CNc1cc(-c2ccc(C(=O)N(C)C)cc2)ncn1 -19%, CO[C@@]1(NC(=O)C(C(=O)O)c2ccc(O)cc2)C(=O)N2C(C(=O)O)=C(CSc3nnnn3C)CO[C@@H]21 (stereo not given in full) -3.22%, C=CCc1cc(OC)c(O)c(C(=O)NCCO)c1 -6.67%, Cc1ccccc1-c1cccc(CN2CCc3nnc(C(NS(C)(=O)=O)C(C)C)n3CC2)c1 (stereo not given) 0.685%, O=c1c(O)c(-c2ccccc2)oc2ccccc12 -14.3%, CN1CCN(c2ncc3ncc(=O)n(CCC#N)c3n2)CC1 -13.1%, O=C(O)CNC(=O)c1ccccc1 -7.47%, O=C(c1csnn1)N1CCC2(CC1)CN(c1ccncc1)C2 -4.23%, O=C(c1cnccn1)N1CCC2(CC1)CN(Cc1ccccc1)C2 -4.86%, COc1cc2c(CCNC(C)=O)c[nH]c2cc1O -4.73%, N#Cc1ccc(CN2CC3(CCN(C(=O)c4cnccn4)CC3)C2)cc1 1.7%, O=C1CC[C@@H](C(=O)O)N1 -12.5%, C#C[C@]1(O)CC[C@H]2[C@@H]3CCC4=CC(=O)CC[C@@H]4[C@H]3CC[C@@]21C -8.06%, CC(=O)N[C@@H]1C(O[C@H]2O[C@H](C(=O)O)C(O)[C@H](O)[C@H]2O)[C@H](O)[C@@H](CO)O[C@H]1O[C@@H]1C(C(=O)O)O[C@@H](O[C@H]2[C@H](O)[C@@H](CO)OC(O)[C@@H]2NC(C)=O)[C@H](O)[C@H]1O (stereo not given in full) -11.1%, CC(=O)c1ccc(C(=O)N2CCCC(c3nc(SCc4ccccn4)ncc3C)C2)cc1 (stereo not given) -2.66%, Cc1ccc(CN2CCOc3ccc(CN4CCN(CCO)CC4)cc3C2)s1 -20%, Nc1[nH]nc2nc3ccccc3nc12 -22%, O=C(CSc1ncccn1)NCC1Cc2cccc(-c3ncccn3)c2O1 (stereo not given) 2.05%, C/C=C(/C)C(=O)OC1C(OC(C)=O)[C@@]2(CO)C(O)C[C@@]3(C)C(=CCC4[C@@]5(C)CCC(OC6OC(C(=O)O)[C@@H](O[C@@H]7OC(CO)C(O)C(O)C7O)C(O)[C@H]6O[C@@H]6OC(CO)C(O)C(O)C6O)[C@](C)(CO)C5CC[C@@]43C)C2CC1(C)C (stereo not given in full) -3.31%, COc1cccc(Nc2ncc3nc(-c4ccc(Cl)cc4)c(=O)n(C[C@H]4CCCO4)c3n2)c1 -7.24%, N[C@H]1CCN(O)C1=O -6.89%, COc1ccc2[nH]cc(CCNc3ccnc(-c4ccc(N(C)C)cc4)n3)c2c1 13.4%, CC(=O)OC1CC2C(C)(C)C(=O)C=C[C@]2(C)C2CC[C@@]3(C)C(c4ccoc4)OC(=O)C4O[C@@]43[C@]12C (stereo not given in full) 5.15%

Source: PubChem BioAssay AID1645887 (National Center for Advancing Translational Sciences (NCATS), 2021)
